# The list shows a part of the results.
# B1: GH95CBM (Clostridium perfringens) (protein)
# chain: EKVAVETSVYLSELEWKSASTGYGEIQKDASCDGNTITLKGENGEKVSYDKGIGTHAHSEIVYSLEGLDYYDYFETFVGVDQEMAGTVASISFEVYLDNEKVFDSGLMTGDTTQKHVKVPIAGKNTLKLVVKDGGDSIGSDHGSFGDAKLT
# Columns and labels:
# Assay in all cases: glycan array binding signal (z-score within array); higher = stronger binding
# Conditions in all cases: glycan notation: IUPAC condensed, linker removed
# Gal(b1-2)Gal = molecular target: Gal(b1-2)Gal
# Method in brief: (§1)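 Glycan array data were curated from 3228 arrays in the Consortium for Functional Glycomics database and kept only where the protein sequence was available. Glycan names were converted to IUPAC-condensed notation, and columns mapping to the same glycan were averaged. The binding signal is a within-array Z-score, averaged across arrays of the same protein sequence at different concentrations or buffers and across linkers. Negative Z-scores can be read as non-binding.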
# Gal(b1-3)Gal = molecular target: Gal(b1-3)Gal
# Method in brief: as §1
# Gal(b1-3)Gal(b1-4)GlcNAc = molecular target: Gal(b1-3)Gal(b1-4)GlcNAc
# Method in brief: as §1
# Gal(b1-3)GalNAc = molecular target: Gal(b1-3)GalNAc
# Method in brief: as §1
# [1] = molecular target: Gal(b1-3)GalNAc(b1-3)Gal(a1-4)Gal(b1-4)Glc
# Method in brief: as §1
# [2] = molecular target: Gal(b1-3)GalNAc(b1-4)Gal(b1-4)Glc
# Method in brief: as §1
# [3] = molecular target: Gal(b1-3)GalNAc(b1-4)[Neu5Ac(a2-3)]Gal(b1-4)Glc
# Method in brief: as §1
# Gal(b1-3)GlcNAc = molecular target: Gal(b1-3)GlcNAc
# Method in brief: as §1
# [4] = molecular target: Gal(b1-3)GlcNAc(b1-2)Man(a1-3)[Gal(b1-3)GlcNAc(b1-2)Man(a1-6)]Man(b1-4)GlcNAc(b1-4)GlcNAc
# Method in brief: as §1
# [5] = molecular target: Gal(b1-3)GlcNAc(b1-3)Gal(b1-3)GlcNAc
# Method in brief: as §1
# [6] = molecular target: Gal(b1-3)GlcNAc(b1-3)Gal(b1-4)Glc
# Method in brief: as §1
# [7] = molecular target: Gal(b1-3)GlcNAc(b1-3)Gal(b1-4)GlcNAc
# Method in brief: as §1
# [8] = molecular target: Gal(b1-3)[Fuc(a1-4)]GlcNAc
# Method in brief: as §1
# [9] = molecular target: Gal(b1-3)[Fuc(a1-4)]GlcNAc(b1-3)Gal(b1-3)[Fuc(a1-4)]GlcNAc
# Method in brief: as §1
# [10] = molecular target: Gal(b1-3)[Fuc(a1-4)]GlcNAc(b1-3)Gal(b1-4)GlcNAc
# Method in brief: as §1
# [11] = molecular target: Gal(b1-3)[Fuc(a1-4)]GlcNAc(b1-3)Gal(b1-4)[Fuc(a1-3)]GlcNAc
# Method in brief: as §1
# [12] = molecular target: Gal(b1-3)[GlcNAc(b1-6)]GalNAc
# Method in brief: as §1
# [13] = molecular target: Gal(b1-3)[Neu5Ac(a2-6)]GalNAc
# Method in brief: as §1
# [14] = molecular target: Gal(b1-3)[Neu5Ac(a2-6)]GlcNAc(b1-6)Gal(b1-4)Glc
# Method in brief: as §1
# [15] = molecular target: Gal(b1-3)[Neu5Ac(b2-6)]GalNAc
# Method in brief: as §1
# [16] = molecular target: Gal(b1-4)GalNAc(a1-3)[Fuc(a1-2)]Gal(b1-4)GlcNAc
# Method in brief: as §1
# [17] = molecular target: Gal(b1-4)GalNAc(b1-3)[Fuc(a1-2)]Gal(b1-4)GlcNAc
# Method in brief: as §1
# Gal(b1-4)Glc = molecular target: Gal(b1-4)Glc
# Method in brief: as §1
# Gal(b1-4)Glc6S = molecular target: Gal(b1-4)Glc6S
# Method in brief: as §1
# Gal(b1-4)GlcNAc = molecular target: Gal(b1-4)GlcNAc
# Method in brief: as §1
# [18] = molecular target: Gal(b1-4)GlcNAc(a1-6)Gal(b1-4)GlcNAc
# Method in brief: as §1
# [19] = molecular target: Gal(b1-4)GlcNAc(b1-2)Man(a1-3)[Gal(b1-4)GlcNAc(b1-2)Man(a1-6)]Man(b1-4)GlcNAc(b1-4)GlcNAc
# Method in brief: as §1
# [20] = molecular target: Gal(b1-4)GlcNAc(b1-3)Gal(b1-3)GlcNAc
# Method in brief: as §1
# [21] = molecular target: Gal(b1-4)GlcNAc(b1-3)Gal(b1-4)Glc
# Method in brief: as §1
# [22] = molecular target: Gal(b1-4)GlcNAc(b1-3)Gal(b1-4)GlcNAc
# Method in brief: as §1
# [23] = molecular target: Gal(b1-4)GlcNAc(b1-3)Gal(b1-4)GlcNAc(b1-3)Gal(b1-4)GlcNAc
# Method in brief: as §1
# [24] = molecular target: Gal(b1-4)GlcNAc(b1-3)Gal(b1-4)[Fuc(a1-3)]GlcNAc(b1-3)Gal(b1-4)[Fuc(a1-3)]GlcNAc
# Method in brief: as §1
# [25] = molecular target: Gal(b1-4)GlcNAc(b1-3)GalNAc
# Method in brief: as §1
# [26] = molecular target: Gal(b1-4)GlcNAc(b1-3)[Gal(b1-4)GlcNAc(b1-6)]Gal(b1-4)GlcNAc
# Method in brief: as §1
# [27] = molecular target: Gal(b1-4)GlcNAc(b1-3)[GlcNAc(b1-6)]Gal(b1-4)GlcNAc
# Method in brief: as §1
# [28] = molecular target: Gal(b1-4)GlcNAc(b1-6)Gal(b1-4)GlcNAc
# Method in brief: as §1
# [29] = molecular target: Gal(b1-4)GlcNAc(b1-6)Gal(b1-4)GlcNAc(b1-6)GalNAc
# Method in brief: as §1
# [30] = molecular target: Gal(b1-4)GlcNAc(b1-6)GalNAc
# Method in brief: as §1
# [31] = molecular target: Gal(b1-4)GlcNAc(b1-6)[Gal(b1-3)]GalNAc
# Method in brief: as §1
# Gal3S(b1-3)GalNAc = molecular target: Gal3S(b1-3)GalNAc
# Method in brief: as §1
# Gal3S(b1-3)GlcNAc = molecular target: Gal3S(b1-3)GlcNAc
# Method in brief: as §1
# [32] = molecular target: Gal3S(b1-3)[Fuc(a1-4)]GlcNAc
# Method in brief: as §1
# Gal3S(b1-4)Glc = molecular target: Gal3S(b1-4)Glc
# Method in brief: as §1
# Gal3S(b1-4)Glc6S = molecular target: Gal3S(b1-4)Glc6S
# Method in brief: as §1
binder,measurement,setting,value
B1,glycan array binding signal (z-score),Gal(b1-2)Gal,2.38
same,glycan array binding signal (z-score),Gal(b1-3)Gal,-0.363
same,glycan array binding signal (z-score),Gal(b1-3)Gal(b1-4)GlcNAc,-0.308
same,glycan array binding signal (z-score),Gal(b1-3)GalNAc,0.501
same,glycan array binding signal (z-score),[1],4.91
same,glycan array binding signal (z-score),[2],-0.222
same,glycan array binding signal (z-score),[3],-0.251
same,glycan array binding signal (z-score),Gal(b1-3)GlcNAc,-0.277
same,glycan array binding signal (z-score),[4],-0.333
same,glycan array binding signal (z-score),[5],-0.334
same,glycan array binding signal (z-score),[6],0.626
same,glycan array binding signal (z-score),[7],-0.315
same,glycan array binding signal (z-score),[8],-0.347
same,glycan array binding signal (z-score),[9],-0.312
same,glycan array binding signal (z-score),[10],-0.302
same,glycan array binding signal (z-score),[11],0.524
same,glycan array binding signal (z-score),[12],-0.121
same,glycan array binding signal (z-score),[13],-0.325
same,glycan array binding signal (z-score),[14],-0.359
same,glycan array binding signal (z-score),[15],-0.298
same,glycan array binding signal (z-score),[16],-0.321
same,glycan array binding signal (z-score),[17],4.18
same,glycan array binding signal (z-score),Gal(b1-4)Glc,1.72
same,glycan array binding signal (z-score),Gal(b1-4)Glc6S,-0.33
same,glycan array binding signal (z-score),Gal(b1-4)GlcNAc,-0.358
same,glycan array binding signal (z-score),[18],-0.283
same,glycan array binding signal (z-score),[19],1.83
same,glycan array binding signal (z-score),[20],-0.319
same,glycan array binding signal (z-score),[21],-0.332
same,glycan array binding signal (z-score),[22],-0.281
same,glycan array binding signal (z-score),[23],-0.269
same,glycan array binding signal (z-score),[24],2.8
same,glycan array binding signal (z-score),[25],2.54
same,glycan array binding signal (z-score),[26],-0.311
same,glycan array binding signal (z-score),[27],-0.326
same,glycan array binding signal (z-score),[28],-0.277
same,glycan array binding signal (z-score),[29],-0.334
same,glycan array binding signal (z-score),[30],-0.293
same,glycan array binding signal (z-score),[31],3.34
same,glycan array binding signal (z-score),Gal3S(b1-3)GalNAc,-0.327
same,glycan array binding signal (z-score),Gal3S(b1-3)GlcNAc,-0.295
same,glycan array binding signal (z-score),[32],-0.388
same,glycan array binding signal (z-score),Gal3S(b1-4)Glc,-0.345
same,glycan array binding signal (z-score),Gal3S(b1-4)Glc6S,-0.242
